48 compounds from PubChem BioAssay AID1508642 (National Center for Advancing Translational Sciences (NCATS), 2021) can be followed below.

Molecules are shown by their SMILES. In all, about 43,000 compounds went through this assay and about 200 (0.47%) were called active. Not shown: some 12% with an inconclusive outcome. The call rests on the fitted dose curve; in most records, active means well fitted cell-killing curve with a large enough effect; inconclusive means small, poorly fitted or top-dose-only effect, or effect the other way; inactive means flat fitted curve, though single readings scatter. This is one part of the list.
On the % scale 0 is the no-effect control and ±100 the full control effect.

The nature of this assay: Cell viability qHTS assay in S16 Pmp22-F2sN cells. Further: nearly all actives have a fitted effect of over 65% in size. As to conditions: S16 Pmp22-F2sN Schwann cells viability, CellTiter-Glo, 24 h; series mostly up to 57.5 µM; activity change, negative = cytotoxicity: at the top concentration. In short, it runs like this: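 S16 Pmp22-F2sN Schwann cells (500-1,000/well) in phenol-red-free DMEM with 10% FBS received 23 nL compound by pin tool for 24 h at 37 °C. Viability was then read as CellTiter-Glo luminescence after 15 min at room temperature.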
For `CCC(=O)N1CCc2cc(S(=O)(=O)NC(Cc3ccccc3)C(=O)NCc3cccc(OC)c3)ccc21` (stereo not drawn), the “activity change, negative = cytotoxicity” value was inactive: 4.09%.

With `Cc1cccc(NC(=O)CC2C(=O)OCCN2Cc2ccccc2)c1` (stereo not drawn), the “activity change, negative = cytotoxicity” value was inactive: -25.5%.

In the case of `CC1=C(c2ccc(F)cc2)S(=O)(=O)NC1=NCc1ccccc1Cl`, the “activity change, negative = cytotoxicity” value was inactive: 4.67%.

In the case of `CC(C)(C)C(=O)Nc1ccc2nc(SCc3ccccc3)sc2c1`, the “activity change, negative = cytotoxicity” value is inactive: -25.2%.

For `COc1ccc(C(=O)Cn2c(=O)n3nc(CCn4nc(C)cc4C)nc3c3cc(OC)c(OC)cc32)cc1`, the “activity change, negative = cytotoxicity” value was inactive: 14.3%.

For the compound `COc1ccc(S(=O)(=O)Nc2c(C)n(C)n(-c3ccccc3)c2=O)cc1Br`, the “activity change, negative = cytotoxicity” value was inactive: 1.61%.

For the compound `CCOc1ccc(C(=O)Nc2c(C)nc(Nc3ccccc3)nc2Nc2ccccc2)cc1OCC`, the “activity change, negative = cytotoxicity” value was inactive: -8.87%.

As for `CCOc1ccc(CNC(=O)C(C)n2ncn3cccc3c2=O)cc1` (stereo not drawn), the “activity change, negative = cytotoxicity” value is inactive: -2.39%.

Consider `CCOC(=O)c1[nH]c(C)c(CCC(=O)Nc2ccc(C)cc2Cl)c1C`, for which the “activity change, negative = cytotoxicity” value is inactive: -13.6%.

As for `O=C(c1ccc(Br)cc1)N1CCC(c2nc3ccccc3s2)CC1`, the “activity change, negative = cytotoxicity” value was inactive: -19.8%.

For the compound `CCOc1ccccc1CNC(=O)C1=C(C)C(=O)OC12CCN(C(C)=O)CC2`, the “activity change, negative = cytotoxicity” value is inactive: -0.0372%.

As to `COc1ccc(CCNc2nc(-c3ccccc3OC)cc(C(F)(F)F)n2)cc1OC`, the “activity change, negative = cytotoxicity” value was inactive: -4.08%.

Consider `COc1ccccc1N1CCN(C(=O)CSc2nc(C)cc(=O)[nH]2)CC1`, for which the “activity change, negative = cytotoxicity” value was inactive: -8.78%.

As to `CC(C)Nc1cc(N2CCN(C3CCCCC3)CC2)c2noc3c2c1C(=O)c1ccccc1-3`, the “activity change, negative = cytotoxicity” value was inactive: -0.932%.

With `O=C(NCCc1ccccc1)c1c2c(nc3ccccc13)C(=O)N(C1CCCCC1)C2`, the “activity change, negative = cytotoxicity” value is inactive: 0.101%.

As for `Cc1oc(-c2cccc(Cl)c2)nc1CN1CCC(C(=O)NCc2ccc(F)cc2)CC1`, the “activity change, negative = cytotoxicity” value was inactive: -2.08%.

`O=C(Nc1nnc(N2CCCC2)s1)Nc1cc(F)ccc1F`: the “activity change, negative = cytotoxicity” value is inactive: 12%.

On to `Cc1cc2c(n1-c1ccc(C(=O)NCc3cccc(Br)c3)cc1)CCC(C)C2` (stereo not drawn), for which the “activity change, negative = cytotoxicity” value was inactive: -12.3%.

As for `CCOC(=O)c1c(-c2ccccc2)oc2ccc(OCc3ccc(C)cc3)cc12`, the “activity change, negative = cytotoxicity” value was inactive: 3.27%.

As to `Cc1ccc(N2C(=O)CSC23C(=O)Nc2ccccc23)cc1F` (stereo not drawn), the “activity change, negative = cytotoxicity” value was inactive: 13.9%.

For the compound `Cc1cccc(-c2nc3c4ccccc4n(CC(=O)Nc4cc(F)ccc4F)c(=O)n3n2)c1`, the “activity change, negative = cytotoxicity” value is inactive: 5.98%.

As for `CC(=O)c1cccc(NC(=O)C2CCN(c3nnc(-n4cccc4)s3)CC2)c1`, the “activity change, negative = cytotoxicity” value is inactive: -1.09%.

`O=C(c1cccc([N+](=O)[O-])c1)N1c2nc(-c3ccco3)nn2C2(CCCCC2)[C@@H]2CCCC[C@@H]21`: the “activity change, negative = cytotoxicity” value is inactive: -7.43%.

As for `COc1ccc(-c2cc(C(F)(F)F)nc(SCC(=O)N3CCCCC3)n2)cc1`, the “activity change, negative = cytotoxicity” value is inactive: 8.78%.

As for `CCCC(=O)c1cc2c(cc1NC(=O)c1ccccc1F)OCCO2`, the “activity change, negative = cytotoxicity” value is inactive: 8.12%.

Take `CCCCOc1ccc(NC(=O)c2cc3c(n(-c4ccc(Cl)cc4)c2=O)CCCC3=O)cc1`: the “activity change, negative = cytotoxicity” value is inactive: 8.51%.

With `Cc1ccc(CNC(=O)CCCn2c(=O)c3ccccc3n(Cc3ccccc3Cl)c2=O)cc1`, the “activity change, negative = cytotoxicity” value was inactive: 10.6%.

With `Cc1ccc(OCC(=O)N(Cc2ccc(N(C)C)cc2)CC2CCCO2)cc1C` (stereo not drawn), the “activity change, negative = cytotoxicity” value is inactive: -3.34%.

With `CC(=O)Nc1ccc(NC(=O)CC(C)n2ccc(C)n2)cc1` (stereo not drawn), the “activity change, negative = cytotoxicity” value was inactive: 0.66%.

On to `Cc1cc(C)c(-c2csc(-c3cc4ccccc4oc3=O)n2)cc1C`, for which the “activity change, negative = cytotoxicity” value was inactive: -0.646%.

On to `CCCN1CCN(CCNC(=O)Nc2cc(Cl)c(OC)cc2OC)CC1`, for which the “activity change, negative = cytotoxicity” value was inactive: 8%.

For the compound `O=C(Cn1c(=O)n(CCCS(=O)(=O)C2CCCCC2)c(=O)c2ccccc21)Nc1ccccc1F`, the “activity change, negative = cytotoxicity” value was inactive: 0.842%.

With `Cc1nn2c3c(cnc2c1-c1ccc(F)cc1)C(=O)CC(c1ccccc1)C3` (stereo not drawn), the “activity change, negative = cytotoxicity” value is inactive: -1.08%.

On to `CCOC(=O)c1c(C)[nH]c(C)c1S(=O)(=O)N(C)CC(=O)N1CCN(c2cccc(C)c2C)CC1`, for which the “activity change, negative = cytotoxicity” value is inactive: 27.6%.

On to `Cc1cccc(N2C(=O)C(CC(=O)Nc3ccccc3)N(C3CCCCC3)C2=O)c1` (stereo not drawn), for which the “activity change, negative = cytotoxicity” value was inactive: -15.4%.

Consider `COc1cccc(C(=O)Nc2nc3nc(C)c(Cc4ccccc4)c(=O)n3[nH]2)c1`, for which the “activity change, negative = cytotoxicity” value is inactive: -0.721%.

For the compound `COc1ccccc1C(=O)Nc1ccccc1C(=O)OCc1cc(=O)n2c(C)csc2n1`, the “activity change, negative = cytotoxicity” value is inactive: 0.501%.

Take `Cc1nn(C)c2c1c(-c1ccccc1)cc(=O)n2Cc1ccc(Br)cc1F`: the “activity change, negative = cytotoxicity” value was inactive: -15.7%.

On to `CCOC(=O)c1c(C)oc2nc(C)nc(NCCCN3CCN(c4ccccc4OC)CC3)c12`, for which the “activity change, negative = cytotoxicity” value is inactive: 1.94%.

On to `COc1ccc(Nc2nnc(-c3cc4cc(Cl)ccc4oc3=O)s2)cc1`, for which the “activity change, negative = cytotoxicity” value was inactive: 11.3%.

As for `CCC(C)NC(=O)c1ccc(Cn2c(=O)c3cccn3c3cccnc32)cc1` (stereo not drawn), the “activity change, negative = cytotoxicity” value was inactive: 1.26%.

For `COc1cccc(CN2C(=O)c3ccccc3C2C(=O)NCCc2ccccc2)c1` (stereo not drawn), the “activity change, negative = cytotoxicity” value is inactive: 3.27%.

For `COc1cc(SC)ccc1C(=O)N1CCn2c3c(c4cc(C)ccc42)CCCC31` (stereo not drawn), the “activity change, negative = cytotoxicity” value is inactive: 0.542%.

Turning to `CCCS(=O)(=O)c1c(S(=O)(=O)CCC)c2cc(C(C)(C)C)ccn2c1C(=O)c1ccc(C)cc1`, the “activity change, negative = cytotoxicity” value was inactive: -6.25%.

Regarding `O=C(CCCCCn1c(=O)[nH]c2ccsc2c1=O)NCc1ccccc1`, the “activity change, negative = cytotoxicity” value is inactive: -2.4%.

`CCOc1ccc(CNC(=O)Cn2nc(N3CCN(c4ccccc4)CC3)ccc2=O)cc1`: the “activity change, negative = cytotoxicity” value was inactive: -17.5%.

For the compound `Oc1c(C(c2cccc(Br)c2)N2CCCC2)sc2nc(-c3ccco3)nn12` (stereo not drawn), the “activity change, negative = cytotoxicity” value is inactive: 5.85%.

As to `Cc1ccc(C(=O)Nc2c(C)nc3ccccn3c2=O)cc1`, the “activity change, negative = cytotoxicity” value is inactive: 2.25%.
